{
  "source": "PubChem BioAssay AID602293",
  "about": "(National Center for Advancing Translational Sciences (NCATS), 2012)",
  "note": "About 30 (2%) of roughly 1,300 compounds were called active. About 10% were inconclusive and are not listed. The call rests on the fitted dose curve; in most records, active means well fitted inhibition curve with a large enough effect; inconclusive means small, poorly fitted or top-dose-only effect; inactive means flat fitted curve, though single readings scatter. This is one part of the list. On the % scale 0 is the no-effect control and ±100 the full control effect; potency means the concentration at half of the fitted maximal effect.",
  "data": [
    {"assay": "qHTS for antagonists of the Thyroid Stimulation Hormone Receptor: Hit Validation in HTRF Activity in a Luteinizing Hormone Receptor Cell Line", "details": "LHR-expressing cell line, cAMP HTRF, antagonist mode; series mostly up to 58 µM; activity change, negative = inhibition: at the top concentration", "in_short": "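Counter-screen on LH receptor–transfected HEK 293 cells: 30 min compound exposure at room temperature in medium containing 100 uM RO 20-1724 phosphodiesterase inhibitor. Cellular cAMP read by competitive HTRF after lysis with d2-cAMP and anti-cAMP antibody (330 nm excitation; 615/660 nm emission).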", "values": [
      {"compound": "Cc1nc2ccc(Nc3nc4cc(S(=O)(=O)N5CCOCC5)ccc4o3)cc2s1", "activity change, negative = inhibition": "inactive: -1.65%"},
      {"compound": "CC(=O)c1ccc(N2CCN(C(=S)Nc3ccc(Oc4ccccc4)cc3)CC2)cc1", "activity change, negative = inhibition": "inactive: -2.45%"},
      {"compound": "COCCn1nnnc1C(c1cccs1)N1CCN(c2cc(C)ccc2C)CC1", "note": "(stereo unspecified)", "activity change, negative = inhibition": "inactive: -2.34%"},
      {"compound": "CC(C)Cn1c(-c2csc3c2CCCC3)n[nH]c1=S", "activity change, negative = inhibition": "inactive: 2.71%"},
      {"compound": "CC1CCN(Cc2c(C(=O)N/N=C/c3cc(Cl)ccc3O)nnn2-c2nonc2N)CC1", "activity change, negative = inhibition": "inactive: 2.76%"},
      {"compound": "CC(NC(=O)c1ccc([N+](=O)[O-])o1)C12CC3CC(CC(C3)C1)C2", "note": "(stereo unspecified)", "activity change, negative = inhibition": "inactive: -0.379%"},
      {"compound": "Cc1cc(C(=O)NC2CCCc3c2cnn3-c2ccc(C(C)(C)C)cc2)nn1C", "note": "(stereo unspecified)", "activity change, negative = inhibition": "inactive: -1.72%"},
      {"compound": "CC(C)(C)NC(=O)C(c1ccc(O)cc1)N(Cc1ccccc1)C(=O)CCC(=O)Nc1nccs1", "note": "(stereo unspecified)", "activity change, negative = inhibition": "inactive: 0.618%"},
      {"compound": "O=C(COc1ccc(-c2ccccc2)cc1)Nc1cccnc1", "activity change, negative = inhibition": "inactive: 0.544%"},
      {"compound": "CCOC(=O)c1sc(NC(=O)CSc2n[nH]c(-c3ccncc3)n2)c(C#N)c1C", "activity change, negative = inhibition": "inactive: 0.55%"},
      {"compound": "CCOC(=O)N1CCN(C(=O)CCc2ccccc2)CC1", "activity change, negative = inhibition": "inactive: 1.26%"},
      {"compound": "CCCn1c(=O)c2[nH]c(C3CCCC3)nc2n(CCC)c1=O", "activity change, negative = inhibition": "inactive: 0.486%"},
      {"compound": "c1ccc(C(c2nnnn2Cc2ccco2)N2CCN(c3nc4ccccc4s3)CC2)cc1", "note": "(stereo unspecified)", "activity change, negative = inhibition": "inactive: -1.35%"},
      {"compound": "Cc1cccc(CC(=O)NCC(=O)NCc2cc(=O)n(C)c(=O)n2C)c1", "activity change, negative = inhibition": "inactive: 1.21%"},
      {"compound": "Cc1ccc(Cl)cc1NC(=O)c1cc2ccccc2cc1O", "activity change, negative = inhibition": "inactive: -9.65%"},
      {"compound": "Cc1cccc(N(C(=O)c2nsc(Cl)c2Cl)C(C(=O)NC2CCCC2)c2ccc(O)cc2)c1C", "note": "(stereo unspecified)", "Potency": "active: 12 µM"},
      {"compound": "O=C(Nc1ccncc1)c1ccc(Cl)c(S(=O)(=O)N2CCc3ccccc32)c1", "activity change, negative = inhibition": "inactive: -6.47%"},
      {"compound": "CCCN1C(=O)c2ccc(C(=O)Nc3cc(C)ccc3O)cc2C1=O", "activity change, negative = inhibition": "inactive: 2.99%"},
      {"compound": "COc1ccc(N2C(=O)NC(NS(=O)(=O)c3ccc(Cl)cc3)(C(F)(F)F)C2=O)cc1", "note": "(stereo unspecified)", "activity change, negative = inhibition": "inactive: -0.112%"},
      {"compound": "CCc1noc(C)c1C(=O)Oc1ccc(N(C)S(=O)(=O)c2ccc(C)cc2)cc1", "activity change, negative = inhibition": "inactive: -9.49%"},
      {"compound": "CC(=O)c1cccc(NC(=O)c2sc3nc4n(c(=O)c3c2C)CCCC4)c1", "activity change, negative = inhibition": "inactive: -1.36%"},
      {"compound": "O=C(NN=C1CCCC1)c1cc(Cl)cc(Cl)c1O", "activity change, negative = inhibition": "inactive: -0.628%"},
      {"compound": "Fc1ccc(/C=C2\\CCCC3=C2Nc2ncnn2C3c2ccc(F)cc2)cc1", "note": "(stereo unspecified)", "activity change, negative = inhibition": "inactive: -0.807%"},
      {"compound": "COc1ccc(NC(=O)CCC2CCCCC2)cc1S(=O)(=O)N1CCCCC1", "activity change, negative = inhibition": "inactive: -0.0089%"},
      {"compound": "COc1cccc(OC)c1C(=O)Nc1sc2c(c1C#N)CCC2", "activity change, negative = inhibition": "inactive: 2.11%"},
      {"compound": "CSCCCNC(=O)c1ccc(OC2CCN(C(=O)c3cccnc3)CC2)cc1", "activity change, negative = inhibition": "inactive: 1.78%"},
      {"compound": "CC(C)C1Nc2c(O)cc(Cl)c([N+](=O)[O-])c2C2C=CCC21", "note": "(stereo unspecified)", "activity change, negative = inhibition": "inactive: 1.7%"},
      {"compound": "c1ccc2c(COn3nnc4ccccc43)cccc2c1", "activity change, negative = inhibition": "inactive: 0.456%"},
      {"compound": "COCC1CCCCN1C(=O)C1CCN(c2nc(-c3ccccc3)nc3c2CCC3)CC1", "note": "(stereo unspecified)", "activity change, negative = inhibition": "inactive: -4.78%"},
      {"compound": "COc1cc(NC(=O)Cn2nc(C(F)(F)F)c(Br)c2C)cc([N+](=O)[O-])c1", "activity change, negative = inhibition": "inactive: -0.304%"},
      {"compound": "CCn1nc(C)c(CN2CCCC(CNS(=O)(=O)c3ccc(OC)cc3)C2)c1C", "note": "(stereo unspecified)", "activity change, negative = inhibition": "inactive: -0.0173%"},
      {"compound": "COc1ccc(CNC(=O)C2CCCN2C(=O)NCc2ccccc2)cc1", "note": "(stereo unspecified)", "activity change, negative = inhibition": "inactive: -0.212%"},
      {"compound": "O=C(COC(=O)c1ccccc1SCC(=O)N1CCCC1)Nc1ccccc1", "activity change, negative = inhibition": "inactive: -1.77%"},
      {"compound": "O=C(NC(=S)Nc1ccc(C(=O)N2CCOCC2)cc1)c1ccc([N+](=O)[O-])cc1", "activity change, negative = inhibition": "inactive: -1.19%"},
      {"compound": "O=[N+]([O-])c1ccc(Sc2cccc[n+]2[O-])c2nonc12", "Potency": "active: 23.9 µM"},
      {"compound": "CNc1c(NC(=O)c2ccc3c(c2)OCO3)c(=O)oc2ccccc12", "activity change, negative = inhibition": "inactive: 2.31%"},
      {"compound": "COc1ccc(C2c3ccc(O)cc3Oc3ncn(Cc4ccco4)c(=N)c32)cc1", "note": "(stereo unspecified)", "activity change, negative = inhibition": "inactive: 1.3%"},
      {"compound": "CCOc1ccccc1NC(=O)CSc1nc2ccccc2c(=O)n1CC1CCCO1", "note": "(stereo unspecified)", "activity change, negative = inhibition": "inactive: 1.54%"},
      {"compound": "O=C(/C=C/c1ccc(Cl)cc1Cl)NCCSCc1ccccc1", "activity change, negative = inhibition": "inactive: -5.45%"},
      {"compound": "O=[N+]([O-])c1ccc(COc2cccc(CNc3ccc(F)cc3)c2)cc1", "activity change, negative = inhibition": "inactive: 2.34%"},
      {"compound": "COc1ccc(S(=O)(=O)N2CCN(c3cccc(C)c3C)CC2)cc1", "activity change, negative = inhibition": "inactive: 0.716%"},
      {"compound": "O=C(NCC1CCCO1)c1cccc2c1C(=O)c1ccc(N3CCC(Cc4ccccc4)CC3)cc1S2(=O)=O", "note": "(stereo unspecified)", "activity change, negative = inhibition": "inactive: -8.99%"},
      {"compound": "Cc1cccc(NC(=S)NCC(C)CSc2ccc(Cl)cc2)c1", "note": "(stereo unspecified)", "activity change, negative = inhibition": "inactive: -2.86%"},
      {"compound": "O=C(O)/C=C/c1ccc(S(=O)(=O)Nc2ccccc2C(=O)Nc2ccc(F)cc2)cc1", "activity change, negative = inhibition": "inactive: -0.301%"},
      {"compound": "CCS(=O)(=O)c1ncc(Cl)c(C(=O)Nc2ccc(S(=O)(=O)N(C)c3ccccc3)cc2)n1", "Potency": "active: 42.6 µM"},
      {"compound": "Cc1ccc2c(CN3CCN(S(=O)(=O)c4ccc(Cl)cc4)CC3)cc(=O)oc2c1C", "activity change, negative = inhibition": "inactive: -1.49%"},
      {"compound": "CC(=O)N/C(=C\\c1ccc(Cl)cc1)C(=O)O", "activity change, negative = inhibition": "inactive: 1.95%"},
      {"compound": "COc1cccc(NC(=S)N2CCCN(Cc3ccc(F)cc3)C2)c1", "activity change, negative = inhibition": "inactive: 0.168%"},
      {"compound": "Cc1nnc(SCC(=O)Nc2nonc2C)s1", "activity change, negative = inhibition": "inactive: -1.27%"},
      {"compound": "O=C1NC(=S)S/C1=C\\c1ccc2ccccc2c1", "activity change, negative = inhibition": "inactive: -0.809%"},
      {"compound": "O=C(O)c1ccc(S(=O)(=O)N(Cc2ccccc2)Cc2ccccc2)cc1", "activity change, negative = inhibition": "inactive: 0.446%"}
    ]}
  ]
}
